Measured values: the supplement of paper PMC9334596
“And” between values parts separate entries of the source, which are not always exact repeats. Identical values can stand only once. Over roughly 5,300 compounds, “PER2::LUC luminescence relative to vehicle control” has its median near 0.96; the highest 2% begin near 1.3. Some of the results follow.

Tested on: mPer2Luc MEF
Assay: PER2::LUC luminescence relative to vehicle control (fold of vehicle); higher = higher PER2::LUC reporter signal
Conditions: 10 µM
In short: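 Mouse embryonic fibroblasts carrying the mPer2Luc reporter were seeded at ~3000 cells per well in 384-well plates, 48 h before compounds from commercial libraries were added at 10 μM. Cells were grown in DMEM with 10% FBS at 37 °C and 5% CO2. Luminescence was read with the ONE-Glo luciferase assay system 24 h and 30 h after treatment, followed by an alamarBlue viability assay. The value is PER2::LUC luminescence as fold of vehicle control.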

Compound	PER2::LUC luminescence (time after treatment 24 h)	PER2::LUC luminescence (time after treatment 30 h)
CC(=O)NCCc1c[nH]c2ccc(O)cc12	0.952	1.13
COc1cc(OC)c(C(=O)CCCN2CCCC2)c(OC)c1	0.87	0.877
COc1ccc(CCNCc2ccc(OCc3ccc(Cl)nc3)c(OC)c2)cc1OC	0.934	0.821
OCC1=C[C@@H](O)[C@@H]2C=CO[C@@H](O[C@@H]3O[C@H](CO)[C@@H](O)[C@H](O)[C@H]3O)[C@H]12	1.05	0.988
CCOc1ccc(Cc2cc([C@@H]3O[C@H](SC)[C@@H](O)[C@H](O)[C@H]3O)ccc2Cl)cc1	0.997	0.927
CC(C)(C)C(=O)OCOP(=O)(COCCn1cnc2c(N)ncnc21)OCOC(=O)C(C)(C)C	0.711	0.646
COc1cc(-c2coc3cc(OC)c(OC)c(OC)c3c2=O)cc(OC)c1OC	0.972	0.969
C=CC(=O)Nc1cccc(Nc2nc(Nc3ccc(N4CCN(C(C)=O)CC4)cc3OC)ncc2C(F)(F)F)c1	0.361	0.32
O=C(Nc1ccc(O)cc1)c1ccccc1O	1.07	1.07
CS(=O)(=O)CCNCc1ccc(-c2ccc3ncnc(Nc4ccc(OCc5cccc(F)c5)c(Cl)c4)c3c2)o1	0.735 and 0.687	0.648 and 0.654
Nc1ccc(-c2nc3ccc(-c4nc5ccc(N)cc5[nH]4)cc3[nH]2)cc1	0.876	0.866
CC1Nc2ccc(Cl)cc2S(=O)(=O)N1 (stereo not given)	0.966	0.916
CCC(=O)c1ccc(O)cc1	1.04	1.04
Nc1c(Br)cc(Br)cc1CN[C@H]1CC[C@H](O)CC1	0.939 and 0.929	0.89 and 0.646
Oc1ccc(Cl)c2cccnc12	1.09 and 0.977	0.936 and 0.861
Cn1ccnc1S	0.758	1.14
C[C@]12CCC3c4ccc(OC(=O)c5ccccc5)cc4CCC3C1CCC2=O (stereo not given in full)	1.13	1.11
CN1CCc2ccccc2Cc2[nH]c3ccccc3c2CC1	1.11	0.824
Cc1cccc(-c2[nH]ncc2-c2ccnc3ccccc23)n1	0.792 and 0.444	0.659 and 0.608
CC(C)(Sc1cc(C(C)(C)C)c(O)c(C(C)(C)C)c1)Sc1cc(C(C)(C)C)c(O)c(C(C)(C)C)c1	0.979	0.805

Compound	PER2::LUC luminescence (time after treatment 24 h)	PER2::LUC luminescence (time after treatment 30 h)
Clc1ccc(N/N=C(/c2ccccc2)c2ccccn2)nc1	0.832	0.785
CCCCCCCCCCCCCC/C(C(=O)O)=C(\C)C(=O)O	1.12	1.03
O=c1cc(N2CCNCC2)oc2c(-c3ccccc3)cccc12	0.722	0.683
CCC[C@H](Nc1nc(-c2ccc(NC(=O)NCC)c(OC)c2)ncc1C)c1cccnc1	0.234 and 0.212	0.33 and 0.268
N[C@@H](Cn1ccc(=O)c(O)c1)C(=O)O	1.02	0.995
CC(=O)NO	0.947	0.848
O=NO	1.04	0.972
CC(N)(Cc1ccc(O)c(O)c1)C(=O)O (stereo not given)	0.993	1.08
O=C(O)CCC(=O)Nc1ccc(Br)cn1	1.03	1.03
CC(=O)N[C@@H](CCC(N)=O)C(=O)O	0.758	1.14
COc1ccc(-c2c(O)c3c(OC)c4c(cc3oc2=O)OC(C)(C)C=C4)cc1	1.5	1.46
CC(C)(Oc1ccc(Cl)cc1)C(=O)O	0.944	0.888
CC(=O)[C@@]1(O)CC[C@H]2[C@@H]3CCC4=CC(=O)CCC4=C3[C@@H](c3ccc(N(C)C)cc3)C[C@@]21C	0.8	0.786
CC[C@H]1OC(=O)[C@@](C)(F)C(=O)[C@H](C)[C@@H](O[C@@H]2O[C@H](C)C[C@H](N(C)C)[C@H]2O)[C@](C)(OC)C[C@@H](C)C(=O)[C@H](C)[C@H]2N(CCCCn3cc(-c4cccc(N)c4)nn3)C(=O)O[C@]12C	0.829	0.845
CNC(=O)c1cccc(NC(=O)N2CCC(Oc3ccccc3Cl)CC2)c1	0.824	0.732
CN1CCCN=C1COC(=O)C(O)(c1ccccc1)C1CCCCC1 (stereo not given)	0.671	0.984
COc1cc(Nc2ncc(F)c(Nc3ccc4c(n3)NC(=O)C(C)(C)O4)n2)cc(OC)c1OC	0.597	0.603
CSc1ccc(C(=O)c2[nH]c(=O)[nH]c2C)cc1	1.13	1.12
CC(C(=O)Nc1cc(C#N)ccc1CCCC(=O)O)c1ccc(F)c2ccccc12 (stereo not given)	1.06	1.03
CCC(=O)OCC(=O)[C@@]1(OC(=O)CC)[C@H](C)CC2C3C([C@@H](O)C[C@@]21C)[C@@]1(C)C=CC(=O)C=C1C[C@H]3Cl (stereo not given in full)	0.542	0.871
